{"source": "PubChem BioAssay AID485364", "about": "(National Center for Advancing Translational Sciences (NCATS), 2010)", "note": "Screen size: about 360,000 compounds; about 11,000 (3.1%) were called active. The inconclusive results got no clear call from the source; some entries with a clear call stand among them for comparison. The call rests on the fitted dose curve; in most records, active means well fitted inhibition curve with a large enough effect; inconclusive means small, poorly fitted or top-dose-only effect; inactive means no such curve, though single readings can be large or run the other way. Potencies of inconclusive entries are left out as doubtful fits. On the % scale 0 is the no-effect control and ±100 the full control effect; potency means the concentration at half of the fitted maximal effect; tags describe the fitted curve by direction and shape."}
{"target": "Schistosoma mansoni thioredoxin glutathione reductase (TGR) (UniProt Q962Y6)", "experiment": "qHTS Assay for the Inhibitors of Schistosoma Mansoni Peroxiredoxins; further: nearly all actives have a fitted effect of over 60% in size", "details": "purified TGR, DTNB reduction, TNB absorbance 405 nm; activity change, negative = inhibition: at 114 µM (top of the series) unless noted", "outline": "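Kinetic colorimetric format: TGR-catalysed, NADPH-driven DTNB reduction monitored via TNB absorbance. Enzyme dispensed at 20 nM; compound exposure 15 min at room temperature before reaction start.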"}
{"smiles": "C#CCOCCOCCOCCNc1nc(N2CCN(C(=O)CCCCCCCCCCNC(=O)[C@H](CCCCN)n3cc(C)nn3)CC2)nc(N2CCN(C(=O)CCCCCCCCCCNC(=O)[C@@H]([C@H](C)CC)n3cc(CCCCCN)nn3)CC2)n1", "Potency": "active: 25.1 µM"}
{"smiles": "CC(C)(C)C(=O)NC(=S)Nc1ccc(F)cc1", "Potency": "inconclusive [inhibitor, partial curve]"}
{"smiles": "CC(=O)N1N=C(c2ccco2)CC1c1cc2cc(C)ccc2nc1Cl", "note": "(configuration not stated)", "Potency": "inconclusive [inhibitor, partial curve]"}
{"smiles": "CC(=O)NCCN=C(C)c1sc2ccccc2c1O", "activity change, negative = inhibition": "inactive: -4.85%"}
{"smiles": "COc1ccc(CCNC(=O)c2ccc(-c3ccc([N+](=O)[O-])cc3)o2)cc1OC", "Potency": "active: 39.8 µM"}
{"smiles": "CCOc1ccc(CCNC(=O)c2cccc(S(=O)(=O)N3CCCC3)c2)cc1OCC", "activity change, negative = inhibition": "inactive: 0.744%"}
{"smiles": "C#Cc1ccc([C@@H]2C=C(C(=O)N3CCN(Cc4ccccc4)CC3)O[C@H](OCC)[C@H]2CCCO)cc1", "Potency": "inconclusive [inhibitor, partial curve]"}
{"smiles": "NS(=O)(=O)c1ccc(CNC(=O)/C=C/c2ccco2)cc1", "Potency": "active: 1.58 µM"}
{"smiles": "O=C(c1cccc(S(=O)(=O)Nc2ccccc2Cl)c1)N1CCN(C(=O)c2ccco2)CC1", "Potency": "active: 31.6 µM"}
{"smiles": "CC(CCc1ccccc1)NCC#N", "note": "(configuration not stated)", "activity change, negative = inhibition": "inactive: -2.65%"}
{"smiles": "Fc1ccc(CNc2nc3ccccc3n3nnnc23)cc1", "Potency": "inconclusive [inhibitor, full curve, poor fit]"}
{"smiles": "O=C1CC(C(=O)N2CCc3ccccc32)CN1c1cccc(C(F)(F)F)c1", "note": "(configuration not stated)", "Potency": "inconclusive [inhibitor, partial curve, poor fit]"}
{"smiles": "C/C=C/c1ccc(OCC(=O)O)c(OC)c1", "Potency": "inconclusive [inhibitor, partial curve]"}
{"smiles": "Cc1ccc(NC(=O)/C=C\\C(=O)N(c2ccc(C(C)C)cc2)C(C(=O)NCc2ccco2)c2ccc(Cl)cc2)cc1", "note": "(configuration not stated)", "Potency": "inconclusive [inhibitor, partial curve]"}
{"smiles": "Cc1ccccc1S(=O)(=O)Cc1ccc(C(=O)N2CCN(c3ncccn3)CC2)o1", "Potency": "inconclusive [inhibitor, full curve, poor fit]"}
{"smiles": "CCC1Nc2ncnc(N3CCN(c4ccccc4)CC3)c2N(Cc2ccc(Cl)cc2)C1=O", "note": "(configuration not stated)", "Potency": "inconclusive [inhibitor, partial curve]"}
{"smiles": "CN(C)S(=O)(=O)c1cccc(NC(=O)COc2nc3ccccc3nc2N2CCOCC2)c1", "Potency": "inconclusive [inhibitor, single point]"}
{"smiles": "Cc1onc(-c2ccccc2)c1C(=O)N/N=C/c1ccc([N+](=O)[O-])c(O)c1", "Potency": "inconclusive [inhibitor, single point]"}
{"smiles": "CCn1c(=O)cc(OCC(=O)NCc2ccc(C)o2)c2ccccc21", "Potency": "active: 35.5 µM"}
{"smiles": "COc1ccc(CNC(=S)Nc2ccccc2Cl)cc1", "Potency": "active: 39.8 µM"}
{"smiles": "COCCCNC(=O)CCCC(=O)NCCCOC", "activity change, negative = inhibition": "inactive: -6.8%"}
{"smiles": "COC(=O)C1=C(C)NC(=O)/C1=C\\c1cc(C)n(-c2ccccc2F)c1C", "Potency": "active: 14.1 µM"}
{"smiles": "COc1ccc(CCNCc2cccn2C)cc1", "Potency": "inconclusive [inhibitor, partial curve, poor fit]"}
{"smiles": "COc1cc(CN2CCNC(=O)C2CC(=O)NCc2csc(C(C)C)n2)cc(OC)c1", "note": "(configuration not stated)", "Potency": "inconclusive [inhibitor, partial curve]"}
{"smiles": "Cc1nn(-c2ccccc2)c2c1C(c1ccc(O)c(O)c1)N1C(=N2)C(Nc2ccccc2)=Nc2ccccc21", "note": "(configuration not stated)", "activity change, negative = inhibition": "inactive: 0.221%"}
{"smiles": "Clc1ccc(OCC#CCN2CCCC2)cc1", "activity change, negative = inhibition": "inactive: -0.118%"}
{"smiles": "Cc1ccc(C(=O)NC(=S)Nc2ccc(N3CCOCC3)cc2)cc1", "Potency": "inconclusive [inhibitor, full curve]"}
{"smiles": "COc1ccc(NC(=O)c2ccc(-n3cccn3)c([N+](=O)[O-])c2)cc1", "Potency": "active: 39.8 µM"}
{"smiles": "O=C(/C=C/c1ccco1)Nc1ccccc1N1CCOCC1", "Potency": "active: 20 µM"}
{"smiles": "Cc1scc(C(=O)N2CCN(c3ccc(Cl)cc3)CC2)c1C", "activity change, negative = inhibition": "inactive: 7.24%"}
{"smiles": "O=C(NCC1OCCc2ccccc21)c1ccc(NC(=O)c2ccc(Cl)cc2Cl)cc1", "note": "(configuration not stated)", "activity change, negative = inhibition": "inactive: 0.337%"}
{"smiles": "COc1ccccc1NS(=O)(=O)c1ccc(C)c(C(=O)N2CCCC2)c1", "activity change, negative = inhibition": "inactive: -6.55%"}
{"smiles": "O=C(CSc1nnc(-c2ccco2)n1Cc1ccccc1)c1ccc(F)cc1", "Potency": "inconclusive [inhibitor, partial curve]"}
{"smiles": "COC(=O)/C=C1/S/C(=N/NC(=O)c2ccccc2OC)NC1=O", "Potency": "inconclusive [inhibitor, partial curve]"}
{"smiles": "Cc1ccc(-c2nc(C)c(CCNC(=O)c3cccs3)s2)cc1", "activity change, negative = inhibition": "inactive: -6.81%"}
{"smiles": "CC(=O)Oc1ccc(N2C(=O)C3C(C2=O)C(C(=O)c2ccc(Cl)cc2)N2CCCC32)cc1", "note": "(configuration not stated)", "Potency": "active: 20 µM"}
{"smiles": "c1ccc2c(c1)oc1c(Nc3ccc(CN4CCOCC4)cc3)ncnc12", "activity change, negative = inhibition": "inactive: -2.12%"}
{"smiles": "O=S(=O)([N-]c1nc2ccccc2nc1-[n+]1ccc(Cc2ccccc2)cc1)c1ccc(Br)s1", "Potency": "inconclusive [inhibitor, partial curve]"}
{"smiles": "Cc1c(Cl)cccc1NC(=S)NCC(C)C", "activity change, negative = inhibition": "inactive: -0.986%"}
{"smiles": "COc1cc2cc(CCCOC(=O)c3ccc(Br)cc3)oc(=O)c2cc1OC", "Potency": "inconclusive [inhibitor, full curve]"}
{"smiles": "Cc1ccc2nc(-c3cccs3)c(Nc3c(C)cccc3C)n2c1", "activity change, negative = inhibition": "inactive: 3.95%"}
{"smiles": "O=C(NCC(=O)N1CCN(S(=O)(=O)c2ccccc2C(F)(F)F)CC1)c1sc2ccccc2c1Cl", "Potency": "inconclusive [inhibitor, partial curve]"}
{"smiles": "Cc1ccc(C(=O)NC(=S)N2CCCCCC2)cc1", "activity change, negative = inhibition": "inactive: -1.02%"}
{"smiles": "CCC(CC)C(=O)Nc1ccc2nc(SCC(=O)N3CCCC3)sc2c1", "Potency": "inconclusive [inhibitor, single point]"}
{"smiles": "COc1ccccc1NC(=S)NC(=O)/C=C/c1cccs1", "Potency": "inconclusive [inhibitor, full curve]"}
{"smiles": "Cc1nc(N)sc1-c1csc(Nc2cccc(O)c2)n1", "Potency": "inconclusive [inhibitor, partial curve]"}
{"smiles": "Cc1ccc(C(=O)CCC(=O)O)cc1", "Potency": "inconclusive [inhibitor, single point]"}
{"smiles": "CCn1c(C)nnc1SCC(=O)Nc1ccc(N2CCOCC2)cc1", "activity change, negative = inhibition": "inactive: 2.14%"}
{"smiles": "CCOc1ccc2[nH]c(=O)c(CN(Cc3ccco3)C(=O)c3ccc(Br)cc3)cc2c1", "Potency": "inconclusive [inhibitor, partial curve]"}
{"smiles": "CC1=C2C(CCS2(=O)=O)CC2(C1)C(=O)OC(C)(C)OC2=O", "note": "(configuration not stated)", "Potency": "inconclusive [inhibitor, full curve, poor fit]"}
{"smiles": "CC1=[N+](CC(=O)c2ccccc2)CCn2cccc21", "activity change, negative = inhibition": "inactive: -11.6%"}
{"smiles": "Cc1c(Cl)cccc1-c1ccc(CNCCSc2nnnn2-c2ccccc2)o1", "Potency": "inconclusive [inhibitor, partial curve]"}
{"smiles": "COc1ccccc1N(CC(=O)N1CCN(c2ccccc2)CC1)S(=O)(=O)c1ccc(C)cc1", "Potency": "inconclusive [inhibitor, full curve, poor fit]"}
{"smiles": "O=C(CC1C(=O)NCCN1Cc1ccccn1)NCCc1ccccc1F", "note": "(configuration not stated)", "Potency": "inconclusive [inhibitor, partial curve, poor fit]"}
{"smiles": "Cc1cc(Cl)ccc1N=c1ssnc1Cl", "Potency": "inconclusive [inhibitor, partial curve]"}
{"smiles": "COc1ccc(OC)c(CCNC(=O)c2cc3c(s2)-c2c(C)cccc2OC3)c1", "activity change, negative = inhibition": "inactive: -16.3%"}
{"smiles": "Cc1nnc(NC(=O)C2C3C=CC(O3)C2C(=O)O)s1", "note": "(configuration not stated)", "Potency": "inconclusive [inhibitor, partial curve]"}
{"smiles": "O=C(CSc1nnc2n1CCCN2)c1ccc([N+](=O)[O-])cc1", "Potency": "inconclusive [inhibitor, partial curve]"}
{"smiles": "O=C(Nc1scc(-c2ccccc2)c1C(=O)O)c1ccccc1Cl", "activity change, negative = inhibition": "inactive: -5.9%"}
{"smiles": "Cc1cccc(OCCC(=O)NCC(=O)Nc2cccc(C)c2C)c1", "activity change, negative = inhibition": "inactive: 1.81%"}
{"smiles": "O=C(COC(=O)c1c2c(nc3ccccc13)CCN(Cc1ccccc1)C2)Nc1c(F)cccc1F", "activity change, negative = inhibition": "inactive: 4.13%"}
{"smiles": "O=C1[C@H]2[C@@H](c3ccc(Cl)cc3)N3C(=O)N(c4cccc(Cl)c4)C(=O)[C@@]3(Cc3ccccc3)[C@H]2C(=O)N1C1CCCCC1", "activity change, negative = inhibition": "inactive: 6.4%"}
{"smiles": "Cc1cccc(-c2nc(CN3CCCC(C(=O)N4CCN(c5cc(Cl)ccc5C)CC4)C3)c(C)o2)c1", "note": "(configuration not stated)", "Potency": "inconclusive [inhibitor, partial curve]"}
{"smiles": "CCN(CC)c1ccc(NC2CC(=O)N(CCc3ccc(OC)cc3)C2=O)cc1", "note": "(configuration not stated)", "Potency": "active: 10 µM"}
{"smiles": "O=C1OC2(CCCCC2)CC2=C1C1O[C@](CCCCN3C(=O)c4ccccc4C3=O)(Cc3ccccc31)O2", "Potency": "inconclusive [inhibitor, partial curve, poor fit]"}
{"smiles": "C/C(CC(=O)Nc1ccc(Cl)cc1Cl)=N\\NC(=O)c1ccncc1", "Potency": "inconclusive [inhibitor, full curve, poor fit]"}
{"smiles": "COc1ccc(OC)c(C2=NS(=O)(=O)N(C)C(C(=O)NCc3cccs3)=C2)c1", "Potency": "inconclusive [inhibitor, partial curve, poor fit]"}
{"smiles": "COC(=O)c1cc2sc(Cl)cc2n1Cc1nc(-c2cccc(C)c2)oc1C", "activity change, negative = inhibition": "inactive: -1.28%"}
{"smiles": "CN1CCN(Cc2cn(C)c3ccccc23)CC1CCO", "note": "(configuration not stated)", "Potency": "inconclusive [inhibitor, partial curve, poor fit]"}
{"smiles": "O=C(COC(=O)/C=C/c1ccc(Br)o1)NCCCN1CCCC1=O", "Potency": "active: 31.6 µM"}
{"smiles": "COc1cccc(C2=CC(c3cc(OC)ccc3OC)n3nnnc3N2)c1", "note": "(configuration not stated)", "Potency": "inconclusive [inhibitor, partial curve]"}
{"smiles": "COCCn1c(C)cc(C(=O)COC(=O)c2ccccc2Br)c1C", "activity change, negative = inhibition": "inactive: -8.52%"}
